Laboratory results as given in the supplement of paper PMC10126150.
Values marked as one replicate rest on one cluster of the flow cell; about a third of the high ones do not repeat.
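Also: ATP exposure 15 min at 22 °C before imaging.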

These sequences were tested on ATP (assay: switch fluorescence ratio, 500 uM ATP over buffer (Cy3 cluster intensity, sum of 5 cycles each) (fold (ratio)); higher = stronger signal-on switching upon ATP binding; sequences stand for … in TCGTCGGCAGCGTCAGATGTGTATAAGAGACAGTTTTTTTTTTTTTTTTTTTTTTTTT…TC). Details: aptamer strand: ATP DNA aptamer (quencher-CACCTGGGGGAGTATTGCGGAGGAAGG + anchor), 100 nM annealed; ATP concentration: 500 uM; one replicate.
Procedure, shortened: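 Cy3-labelled switching-strand clusters on a modified Illumina MiSeq flow-cell were annealed to 100 nM quencher-labelled ATP aptamer, imaged in selection buffer, then imaged after 15 min with 500 uM ATP at 22 °C. Five buffer/ATP cycles ran, with NaOH stripping and re-annealing between them. The fluorescence ratio is summed target-cycle over summed buffer-cycle Cy3 intensity per cluster, averaged per switch-domain sequence. Clusters outside 100-1000 RFU were excluded.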
AGCATAAATT showed a switch fluorescence ratio of 0.972. AGCATAGA gave a switch fluorescence ratio of 1.01. With AGCATAGTGG the switch fluorescence ratio was 1.02. For AGCATATGGA, the switch fluorescence ratio was 0.985. With AGCATGACAC the switch fluorescence ratio was 1.3. Work on AGCATGACTA yielded a switch fluorescence ratio of 1.07. Sequence AGCATGAGCG has a switch fluorescence ratio of 0.856. Sequence AGCATGGTCA has a switch fluorescence ratio of 1. With AGCATTGTTA the switch fluorescence ratio was 0.953. With AGCCACGTTG the switch fluorescence ratio was 0.975. For AGCCAGTCGG, the switch fluorescence ratio was 0.987. In the case of AGCCATGTTG, the switch fluorescence ratio is reported as 1.01. In the case of AGCCCACCTT, the switch fluorescence ratio is reported as 1.09. For AGCCCATCGA, the switch fluorescence ratio was 1.01. Work on AGCCCCCCCG yielded a switch fluorescence ratio of 1.16. For AGCCCCTATT, the switch fluorescence ratio was 1.02. Work on AGCCCCTCGC yielded a switch fluorescence ratio of 1.03. In the case of AGCCCGCCC, the switch fluorescence ratio is reported as 1.11. Sequence AGCCCGGCTC has a switch fluorescence ratio of 0.977. AGCCCTGCCG gave a switch fluorescence ratio of 0.989. With AGCCGATTTT the switch fluorescence ratio was 1.01. Work on AGCCGGACGA yielded a switch fluorescence ratio of 1.06. Sequence AGCCGGATAT has a switch fluorescence ratio of 0.989. Sequence AGCCGGGAGG has a switch fluorescence ratio of 0.982. In the case of AGCCGTCGAT, the switch fluorescence ratio is reported as 0.994. In the case of AGCCTAAAAA, the switch fluorescence ratio is reported as 0.945. With AGCCTACACA the switch fluorescence ratio was 1.05. In the case of AGCCTAGGGG, the switch fluorescence ratio is reported as 1.07. With AGCCTATGAT the switch fluorescence ratio was 1.01. In the case of AGCCTCAAAT, the switch fluorescence ratio is reported as 1.05. In the case of AGCCTCATTC, the switch fluorescence ratio is reported as 0.98. AGCCTCCCGT showed a switch fluorescence ratio of 1.2. AGCCTCGCGT was tested, and the switch fluorescence ratio was 1. Work on AGCCTCTGGT yielded a switch fluorescence ratio of 1.04. Sequence AGCCTGACGC has a switch fluorescence ratio of 1.29. In the case of AGCCTGATCG, the switch fluorescence ratio is reported as 0.993. AGCCTTAAGT gave a switch fluorescence ratio of 1.03. Work on AGCCTTGTAG yielded a switch fluorescence ratio of 0.96. For AGCGACAATT, the switch fluorescence ratio was 0.978. Work on AGCGACATGT yielded a switch fluorescence ratio of 1.01. Sequence AGCGACGATG has a switch fluorescence ratio of 1.04. Work on AGCGACTATA yielded a switch fluorescence ratio of 1.07. Work on AGCGACTCAG yielded a switch fluorescence ratio of 1.03. For AGCGACTTTA, the switch fluorescence ratio was 1.03. Work on AGCGAGTGGG yielded a switch fluorescence ratio of 1.05. Sequence AGCGAGTGTT has a switch fluorescence ratio of 0.985. Work on AGCGATTCAT yielded a switch fluorescence ratio of 1.02. Sequence AGCGCAGACC has a switch fluorescence ratio of 1.27. For AGCGCAGTCG, the switch fluorescence ratio was 0.949. Sequence AGCGCATTTT has a switch fluorescence ratio of 1.02. With AGCGCTACGG the switch fluorescence ratio was 1.05. Work on AGCGCTAT yielded a switch fluorescence ratio of 0.95. AGCGGAGCTA was tested, and the switch fluorescence ratio was 1. AGCGGGGTCT was tested, and the switch fluorescence ratio was 1.02. In the case of AGCGGTACTT, the switch fluorescence ratio is reported as 1.48. In the case of AGCGGTCGTG, the switch fluorescence ratio is reported as 1.01. AGCGGTTTAG showed a switch fluorescence ratio of 1.03. AGCGTCCCGG was tested, and the switch fluorescence ratio was 1.03. For AGCGTCTTCC, the switch fluorescence ratio was 1.13. With AGCGTGGATG the switch fluorescence ratio was 1.04. Work on AGCGTGGGCC yielded a switch fluorescence ratio of 0.967. With AGCGTTAATA the switch fluorescence ratio was 0.953. AGCGTTATGT showed a switch fluorescence ratio of 1.01. AGCGTTTGCT was tested, and the switch fluorescence ratio was 0.962. AGCTAAGAAA gave a switch fluorescence ratio of 1.01. Work on AGCTACTTAC yielded a switch fluorescence ratio of 1.62. AGCTAGGCGA showed a switch fluorescence ratio of 1.07. AGCTATCTGT showed a switch fluorescence ratio of 1.02. AGCTATTATT gave a switch fluorescence ratio of 0.985. In the case of AGCTCGATAT, the switch fluorescence ratio is reported as 1.01. AGCTCGCACA gave a switch fluorescence ratio of 1.3. Work on AGCTCGTGGA yielded a switch fluorescence ratio of 1.04. Sequence AGCTCGTTTG has a switch fluorescence ratio of 0.988. AGCTGAGCTT showed a switch fluorescence ratio of 1. Sequence AGCTGGCTAT has a switch fluorescence ratio of 1.02. In the case of AGCTGTCAAT, the switch fluorescence ratio is reported as 1.04. AGCTTAAATC gave a switch fluorescence ratio of 1.05. Sequence AGCTTCAAGG has a switch fluorescence ratio of 0.966. AGCTTCTGAA was tested, and the switch fluorescence ratio was 1.04. AGCTTGAAAA gave a switch fluorescence ratio of 1.01. Work on AGCTTGGAAC yielded a switch fluorescence ratio of 1.02. AGCTTTCTTG was tested, and the switch fluorescence ratio was 0.962. With AGCTTTTGTA the switch fluorescence ratio was 0.985. For AGGAAAAACG, the switch fluorescence ratio was 1.05. With AGGAAAACAC the switch fluorescence ratio was 1.02. With AGGAAACCGT the switch fluorescence ratio was 0.996. Work on AGGAAACGGA yielded a switch fluorescence ratio of 1.06. AGGAACATGC gave a switch fluorescence ratio of 1.06. With AGGAACTTGC the switch fluorescence ratio was 1.37. Work on AGGAAGAAAT yielded a switch fluorescence ratio of 0.992. Work on AGGAAGGAG yielded a switch fluorescence ratio of 1.02. In the case of AGGAAGGTAA, the switch fluorescence ratio is reported as 1.02. AGGAAGTAGC showed a switch fluorescence ratio of 1.03. For AGGAAGTCGG, the switch fluorescence ratio was 0.978. In the case of AGGAAGTGTA, the switch fluorescence ratio is reported as 1.01. AGGAAGTTAT showed a switch fluorescence ratio of 0.999. Sequence AGGAAGTTGT has a switch fluorescence ratio of 0.991. In the case of AGGAATATTC, the switch fluorescence ratio is reported as 1.04. AGGAATCGTA gave a switch fluorescence ratio of 1.02. In the case of AGGAATTGGT, the switch fluorescence ratio is reported as 0.992. AGGACAGTGG gave a switch fluorescence ratio of 1. Work on AGGACATCAG yielded a switch fluorescence ratio of 1.06. For AGGACATCTG, the switch fluorescence ratio was 0.922. With AGGACGCGCC the switch fluorescence ratio was 1.02. AGGACTAAAA was tested, and the switch fluorescence ratio was 1.02. Sequence AGGACTGTAG has a switch fluorescence ratio of 1.02. With AGGAGATGCG the switch fluorescence ratio was 1.01. For AGGAGCGTCT, the switch fluorescence ratio was 1.09. With AGGAGCTTAC the switch fluorescence ratio was 2.17. In the case of AGGAGGGAGG, the switch fluorescence ratio is reported as 1.01. In the case of AGGAGTATGT, the switch fluorescence ratio is reported as 0.954. With AGGAGTGATA the switch fluorescence ratio was 1.03. With AGGATAGAGG the switch fluorescence ratio was 1.01. AGGATAGGAC gave a switch fluorescence ratio of 0.963. Sequence AGGATCAGGC has a switch fluorescence ratio of 0.913. In the case of AGGATCCCTG, the switch fluorescence ratio is reported as 1. For AGGATCGGCC, the switch fluorescence ratio was 1.02. In the case of AGGATCTCCG, the switch fluorescence ratio is reported as 0.992. Work on AGGATCTTCT yielded a switch fluorescence ratio of 1.02. With AGGATGCAGC the switch fluorescence ratio was 0.996. Work on AGGATGGATG yielded a switch fluorescence ratio of 0.995. AGGATGTAAG gave a switch fluorescence ratio of 0.992. In the case of AGGATGTAT, the switch fluorescence ratio is reported as 0.99. AGGATTCGCG gave a switch fluorescence ratio of 1.08. In the case of AGGATTGAGC, the switch fluorescence ratio is reported as 1.02. AGGATTGTTA was tested, and the switch fluorescence ratio was 1.02. Sequence AGGATTTTTA has a switch fluorescence ratio of 0.975. In the case of AGGCAACGCG, the switch fluorescence ratio is reported as 0.985. AGGCAGAGAA was tested, and the switch fluorescence ratio was 1.05. For AGGCAGGGTA, the switch fluorescence ratio was 0.965. In the case of AGGCATGAAG, the switch fluorescence ratio is reported as 0.979. Sequence AGGCCAAGTT has a switch fluorescence ratio of 1.02. AGGCCAATA gave a switch fluorescence ratio of 1.04. With AGGCCAGACT the switch fluorescence ratio was 1.04. Work on AGGCCGCCGC yielded a switch fluorescence ratio of 1. For AGGCCGCTAT, the switch fluorescence ratio was 1.17. With AGGCCTAAGG the switch fluorescence ratio was 0.954. In the case of AGGCCTTGTA, the switch fluorescence ratio is reported as 0.987. AGGCGATATC gave a switch fluorescence ratio of 0.989. With AGGCGCTGGT the switch fluorescence ratio was 0.984. For AGGCGGTTGA, the switch fluorescence ratio was 1.01. AGGCGTAACT gave a switch fluorescence ratio of 1.01. AGGCGTCAG showed a switch fluorescence ratio of 0.954. For AGGCGTGATG, the switch fluorescence ratio was 1.02. Sequence AGGCGTTCGC has a switch fluorescence ratio of 1.01. AGGCTCGACG showed a switch fluorescence ratio of 0.974. For AGGCTGGGCT, the switch fluorescence ratio was 0.964. With AGGCTTTTCA the switch fluorescence ratio was 0.988. AGGGAAGCTG showed a switch fluorescence ratio of 0.841. AGGGAAGGTC was tested, and the switch fluorescence ratio was 1.04. In the case of AGGGAATTCA, the switch fluorescence ratio is reported as 1. AGGGAATTCG gave a switch fluorescence ratio of 1.01. For AGGGACCAAG, the switch fluorescence ratio was 0.948. In the case of AGGGACCATC, the switch fluorescence ratio is reported as 1.05. With AGGGAGAGAA the switch fluorescence ratio was 0.999. Sequence AGGGATTATC has a switch fluorescence ratio of 0.958. Work on AGGGCAAGAT yielded a switch fluorescence ratio of 1.16. For AGGGCAGGCG, the switch fluorescence ratio was 0.839. Sequence AGGGCCTTGG has a switch fluorescence ratio of 0.986. For AGGGCGATGA, the switch fluorescence ratio was 1.01. Work on AGGGCGTCAG yielded a switch fluorescence ratio of 0.961. AGGGGAGATT gave a switch fluorescence ratio of 0.969. Work on AGGGGATCTG yielded a switch fluorescence ratio of 0.967. In the case of AGGGGATGTT, the switch fluorescence ratio is reported as 1.03. AGGGGCCTAC was tested, and the switch fluorescence ratio was 1.02. AGGGGGACTT was tested, and the switch fluorescence ratio was 1.02. AGGGGTCGCA was tested, and the switch fluorescence ratio was 1.02. AGGGGTTAG was tested, and the switch fluorescence ratio was 0.99. AGGGGTTATT was tested, and the switch fluorescence ratio was 0.986. With AGGGTAATT the switch fluorescence ratio was 1.02. With AGGGTACGTA the switch fluorescence ratio was 0.988. AGGGTCCTGG showed a switch fluorescence ratio of 0.964. Sequence AGGGTCGGCA has a switch fluorescence ratio of 1.02. AGGGTCGTTA showed a switch fluorescence ratio of 1.02. For AGGGTCTGT, the switch fluorescence ratio was 0.976. Work on AGGGTGGACG yielded a switch fluorescence ratio of 0.969. AGGTACCCCG gave a switch fluorescence ratio of 1.01. For AGGTAGAGTT, the switch fluorescence ratio was 0.98. AGGTAGATGT was tested, and the switch fluorescence ratio was 0.969. AGGTAGCAT showed a switch fluorescence ratio of 1.05. AGGTAGCCTG was tested, and the switch fluorescence ratio was 0.983. AGGTAGTACC showed a switch fluorescence ratio of 0.998. AGGTATATGA showed a switch fluorescence ratio of 1. Sequence AGGTATGAAG has a switch fluorescence ratio of 0.993. Sequence AGGTATTTTG has a switch fluorescence ratio of 0.955. AGGTCAGCCA gave a switch fluorescence ratio of 1.01. Work on AGGTCATTCT yielded a switch fluorescence ratio of 0.978. For AGGTCCAAGT, the switch fluorescence ratio was 1.05. AGGTCCCTTA gave a switch fluorescence ratio of 0.966. For AGGTCCTAGG, the switch fluorescence ratio was 0.985. In the case of AGGTCGTATG, the switch fluorescence ratio is reported as 1.01. AGGTCTCCAT showed a switch fluorescence ratio of 0.999. AGGTCTGCGC showed a switch fluorescence ratio of 1.05. In the case of AGGTCTGTGA, the switch fluorescence ratio is reported as 0.999. Work on AGGTCTTCAC yielded a switch fluorescence ratio of 1.02. AGGTGAAAAT gave a switch fluorescence ratio of 0.99. In the case of AGGTGACCT, the switch fluorescence ratio is reported as 1.07. AGGTGAGAAC gave a switch fluorescence ratio of 1.02. Sequence AGGTGATGT has a switch fluorescence ratio of 0.994. For AGGTGGTTCG, the switch fluorescence ratio was 0.994.
